In the supplement of paper PMC8728848:
The other results are listed elsewhere or left out.

Experiments:
Assay in all cases: glycan array binding signal (z-score within array); higher = stronger binding
Conditions in all cases: glycan notation: IUPAC condensed, linker removed
Fuc(a1-2)Gal = biological target: Fuc(a1-2)Gal
In short: (§1)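 The Consortium for Functional Glycomics database supplied 3228 glycan arrays, of which those lacking an available protein sequence were dropped. The binding signal, a within-array Z-score, was averaged across arrays of the same protein sequence and across linkers. Negative scores can be read as non-binding.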

Fuc(a1-2)Gal(b1-3)GalNAc = biological target: Fuc(a1-2)Gal(b1-3)GalNAc
In short: as §1

[1] = biological target: Fuc(a1-2)Gal(b1-3)GalNAc(a1-3)[Fuc(a1-2)]Gal(b1-4)Glc
In short: as §1

[2] = biological target: Fuc(a1-2)Gal(b1-3)GalNAc(a1-3)[Fuc(a1-2)]Gal(b1-4)GlcNAc
In short: as §1

[3] = biological target: Fuc(a1-2)Gal(b1-3)GalNAc(b1-3)Gal
In short: as §1

[4] = biological target: Fuc(a1-2)Gal(b1-3)GalNAc(b1-3)Gal(a1-4)Gal(b1-4)Glc
In short: as §1

[5] = biological target: Fuc(a1-2)Gal(b1-3)GalNAc(b1-4)[Neu5Ac(a2-3)]Gal(b1-4)Glc
In short: as §1

Fuc(a1-2)Gal(b1-3)GlcNAc = biological target: Fuc(a1-2)Gal(b1-3)GlcNAc
In short: as §1

[6] = biological target: Fuc(a1-2)Gal(b1-3)GlcNAc(b1-2)Man(a1-3)[Fuc(a1-2)Gal(b1-3)GlcNAc(b1-2)Man(a1-6)]Man(b1-4)GlcNAc(b1-4)GlcNAc
In short: as §1

[7] = biological target: Fuc(a1-2)Gal(b1-3)GlcNAc(b1-2)Man(a1-3)[Fuc(a1-2)Gal(b1-3)GlcNAc(b1-2)Man(a1-6)]Man(b1-4)GlcNAc(b1-4)[Fuc(a1-6)]GlcNAc
In short: as §1

[8] = biological target: Fuc(a1-2)Gal(b1-3)GlcNAc(b1-3)Gal(b1-4)Glc
In short: as §1

[9] = biological target: Fuc(a1-2)Gal(b1-3)GlcNAc(b1-3)GalNAc
In short: as §1

[10] = biological target: Fuc(a1-2)Gal(b1-3)GlcNAc(b1-3)[Fuc(a1-3)[Gal(b1-4)]GlcNAc(b1-6)]Gal(b1-4)Glc
In short: as §1

[11] = biological target: Fuc(a1-2)Gal(b1-3)GlcNAc(b1-3)[Gal(b1-4)GlcNAc(b1-6)]Gal(b1-4)Glc
In short: as §1

[12] = biological target: Fuc(a1-2)Gal(b1-3)[Fuc(a1-4)]GlcNAc
In short: as §1

[13] = biological target: Fuc(a1-2)Gal(b1-3)[Fuc(a1-4)]GlcNAc(b1-2)Man(a1-3)[Fuc(a1-2)Gal(b1-3)[Fuc(a1-4)]GlcNAc(b1-2)Man(a1-6)]Man(b1-4)GlcNAc(b1-4)GlcNAc
In short: as §1

[14] = biological target: Fuc(a1-2)Gal(b1-3)[Fuc(a1-4)]GlcNAc(b1-3)[Fuc(a1-3)[Gal(b1-4)]GlcNAc(b1-6)]Gal(b1-4)Glc
In short: as §1

[15] = biological target: Fuc(a1-2)Gal(b1-3)[Fuc(a1-4)]GlcNAc(b1-3)[Gal(b1-4)GlcNAc(b1-6)]Gal(b1-4)Glc
In short: as §1

Fuc(a1-2)Gal(b1-4)Glc = biological target: Fuc(a1-2)Gal(b1-4)Glc
In short: as §1

Fuc(a1-2)Gal(b1-4)Glc6S = biological target: Fuc(a1-2)Gal(b1-4)Glc6S
In short: as §1

Fuc(a1-2)Gal(b1-4)GlcNAc = biological target: Fuc(a1-2)Gal(b1-4)GlcNAc
In short: as §1

[16] = biological target: Fuc(a1-2)Gal(b1-4)GlcNAc(b1-2)Man(a1-3)[Fuc(a1-2)Gal(b1-4)GlcNAc(b1-2)Man(a1-6)]Man(b1-4)GlcNAc(b1-4)GlcNAc
In short: as §1

[17] = biological target: Fuc(a1-2)Gal(b1-4)GlcNAc(b1-2)Man(a1-3)[Fuc(a1-2)Gal(b1-4)GlcNAc(b1-2)Man(a1-6)]Man(b1-4)GlcNAc(b1-4)[Fuc(a1-6)]GlcNAc
In short: as §1

[18] = biological target: Fuc(a1-2)Gal(b1-4)GlcNAc(b1-2)[Fuc(a1-2)Gal(b1-4)GlcNAc(b1-4)]Man(a1-3)[Fuc(a1-2)Gal(b1-4)GlcNAc(b1-2)Man(a1-6)]Man(b1-4)GlcNAc(b1-4)GlcNAc
In short: as §1

[19] = biological target: Fuc(a1-2)Gal(b1-4)GlcNAc(b1-3)Gal(b1-4)GlcNAc
In short: as §1

[20] = biological target: Fuc(a1-2)Gal(b1-4)GlcNAc(b1-3)Gal(b1-4)GlcNAc(b1-3)Gal(b1-4)GlcNAc
In short: as §1

[21] = biological target: Fuc(a1-2)Gal(b1-4)GlcNAc(b1-3)GalNAc
In short: as §1

[22] = biological target: Fuc(a1-2)Gal(b1-4)GlcNAc6S
In short: as §1

[23] = biological target: Fuc(a1-2)Gal(b1-4)[Fuc(a1-3)]GlcNAc
In short: as §1

[24] = biological target: Fuc(a1-2)Gal(b1-4)[Fuc(a1-3)]GlcNAc(b1-2)Man(a1-3)[Fuc(a1-2)Gal(b1-4)[Fuc(a1-3)]GlcNAc(b1-2)Man(a1-6)]Man(b1-4)GlcNAc(b1-4)GlcNAc
In short: as §1

B1: Gal 7 (Canis lupus) (protein)
chain: MAGSSNVPHKTSLPEGIRVGTVMRIRGVVPNKAGRFYVNLLCGEAPGSEAALHFNPRLDESTVVFNTLEQGAWGREERGTGIPFQRGQPFDVLLIATDEGFKAVVGDSEYHHFRYRIPPARVRLLEVGGDLQLESVSVF
glycan array binding signal (z-score) (Fuc(a1-2)Gal): -0.198 | glycan array binding signal (z-score) (Fuc(a1-2)Gal(b1-3)GalNAc): -0.206 | glycan array binding signal (z-score) [1]: -0.206 | glycan array binding signal (z-score) [2]: -0.132 | glycan array binding signal (z-score) [3]: -0.209 | glycan array binding signal (z-score) [4]: -0.208 | glycan array binding signal (z-score) [5]: -0.216 | glycan array binding signal (z-score) (Fuc(a1-2)Gal(b1-3)GlcNAc): -0.122 | glycan array binding signal (z-score) [6]: -0.044 | glycan array binding signal (z-score) [7]: -0.169 | glycan array binding signal (z-score) [8]: 0.464 | glycan array binding signal (z-score) [9]: -0.187 | glycan array binding signal (z-score) [10]: 0.086 | glycan array binding signal (z-score) [11]: 0.296 | glycan array binding signal (z-score) [12]: -0.207 | glycan array binding signal (z-score) [13]: -0.205 | glycan array binding signal (z-score) [14]: -0.21 | glycan array binding signal (z-score) [15]: -0.135 | glycan array binding signal (z-score) (Fuc(a1-2)Gal(b1-4)Glc): -0.208 | glycan array binding signal (z-score) (Fuc(a1-2)Gal(b1-4)Glc6S): -0.194 | glycan array binding signal (z-score) (Fuc(a1-2)Gal(b1-4)GlcNAc): -0.192 | glycan array binding signal (z-score) [16]: -0.071 | glycan array binding signal (z-score) [17]: -0.187 | glycan array binding signal (z-score) [18]: -0.16 | glycan array binding signal (z-score) [19]: 9.85 | glycan array binding signal (z-score) [20]: 8.28 | glycan array binding signal (z-score) [21]: -0.117 | glycan array binding signal (z-score) [22]: -0.199 | glycan array binding signal (z-score) [23]: -0.205 | glycan array binding signal (z-score) [24]: -0.182
